This note sets out measurements from US20250270341A1 (Alector, published 2025).

T1: huCD98hc ECD Avi-His (human, UniProt P08195 105-529)
T1 construct: biotinylated on the Avi tag where captured on streptavidin; also called Human CD98-AVI-His; Human CD98hc-AVI-His
T1 sequence: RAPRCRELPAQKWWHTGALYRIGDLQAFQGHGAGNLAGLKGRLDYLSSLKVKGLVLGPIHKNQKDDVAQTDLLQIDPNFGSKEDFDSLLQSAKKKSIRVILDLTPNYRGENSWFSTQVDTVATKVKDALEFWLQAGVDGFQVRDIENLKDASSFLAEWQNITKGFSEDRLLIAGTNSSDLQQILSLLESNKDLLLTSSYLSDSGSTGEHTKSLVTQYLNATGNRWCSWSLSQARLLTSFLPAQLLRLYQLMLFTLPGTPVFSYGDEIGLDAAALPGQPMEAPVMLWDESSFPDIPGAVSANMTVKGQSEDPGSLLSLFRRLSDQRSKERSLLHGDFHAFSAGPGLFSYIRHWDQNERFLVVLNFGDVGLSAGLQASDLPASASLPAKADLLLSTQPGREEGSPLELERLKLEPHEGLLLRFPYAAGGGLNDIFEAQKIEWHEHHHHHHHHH

T2: Cyno CD98hc ECD Avi-His (cynomolgus macaque, UniProt P08195 105-529 (human entry))
T2 construct: biotinylated on the Avi tag where captured on streptavidin; also called Cyno CD98-AVI-His; Cyno CD98hc-AVI-His
T2 chain: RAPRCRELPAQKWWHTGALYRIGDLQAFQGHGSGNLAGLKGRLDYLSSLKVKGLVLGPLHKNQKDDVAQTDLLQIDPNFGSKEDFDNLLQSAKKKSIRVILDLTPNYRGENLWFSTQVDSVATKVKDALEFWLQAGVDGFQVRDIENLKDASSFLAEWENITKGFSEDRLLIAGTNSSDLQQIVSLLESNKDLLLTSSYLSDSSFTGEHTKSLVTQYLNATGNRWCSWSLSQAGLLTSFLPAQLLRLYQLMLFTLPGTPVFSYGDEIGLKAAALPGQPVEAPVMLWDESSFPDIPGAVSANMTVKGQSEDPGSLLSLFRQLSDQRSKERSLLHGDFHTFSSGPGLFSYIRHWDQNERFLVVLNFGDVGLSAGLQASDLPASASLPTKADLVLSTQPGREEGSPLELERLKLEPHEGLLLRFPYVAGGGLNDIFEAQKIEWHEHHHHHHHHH

B1: CD98hc.05.166 (2+1 bispecific antibody) (bispecific antibody)
heavy 1: EVRLLESGGGLVQPGGSLRLSCAASGFTFSNYAMGWVRQAPGKGLEWVSAISGSGGSTYYADSVKGRFTTSRDDSKNALYLQMNSLRAEDTAVYYCARGGPGWYAADVWGQGTTVTVSSASTKGPSVFPLAPSSKSTSGGTAALGCLVKDYFPEPVTVSWNSGALTSGVHTFPAVLQSSGLYSLSSVVTVPSSSLGTQTYICNVNHKPSNTKVDKKV[here human IgG1 Fc with changes without letters]GGGGSGGGGSGGGGSEVQLLQSGAELVKPGASVKLSCTASGFNILDTYIHWVMQRPEQGLEWIGRIDPANGHVKYDPKFQGKATITADTSSNTAYLQLSSLTSEDTAVYYCASPFTTVVATNIYYYGLGYWGHGTSVTVSSGGSEGKSSGSGSESKSTGGSDIVMTQSHKFMSTSLGDRVSITCKASQGVFTAVAWYQQKPGQSPKLLIYSASYRYTGVPDRFTGSGSGTDFTFTISSVQAEDLAVYYCQQHYSTPWTFGGGTKLEIK
heavy 2: EVRLLESGGGLVQPGGSLRLSCAASGFTFSNYAMGWVRQAPGKGLEWVSAISGSGGSTYYADSVKGRFTTSRDDSKNALYLQMNSLRAEDTAVYYCARGGPGWYAADVWGQGTTVTVSS[here human IgG1 constant region with changes without letters]
light: DIQMTQSPSSLSASVGDRVTITCRASQSISSYLNWYQQKPGKAPKLLIYAASSLQSGVPSRFSGSGSGTDFTLTISSLQPEDFATYYCQQADLPAFAFGGGTKVEIKRTVAAPSVFIFPPSDEQLKSGTASVVCLLNNFYPREAKVQWKVDNALQSGNSQESVTEQDSKDSTYSLSSTLTLSKADYEKHKVYACEVTHQGLSSPVTKSFNRGEC
B2: CD98hc.05.207 (2+1 bispecific antibody) (bispecific antibody)
heavy 1: EVRLLESGGGLVQPGGSLRLSCAASGFTFSNYAMGWVRQAPGKGLEWVSAISGSGGSTYYADSVKGRFTTSRDDSKNALYLQMNSLRAEDTAVYYCARGGPGWYAADVWGQGTTVTVSSASTKGPSVFPLAPSSKSTSGGTAALGCLVKDYFPEPVTVSWNSGALTSGVHTFPAVLQSSGLYSLSSVVTVPSSSLGTQTYICNVNHKPSNTKVDKKV[here human IgG1 Fc with changes without letters]GGGGSGGGGSGGGGSEVQLVESGGGLVKPGGSLKISCAASGFAFSSYDMSWVRQTPEKRLEWVAYISSAGGSTYFPGTVKGRFTISRDNAKNTLYLQMRSLKSEDTAMYYCARHENGHYPFFDFWGQGTTLTVSSGGSEGKSSGSGSESKSTGGSDIVMSQSPSSLAVSVGEKVTLSCKSSQSLFYSGNQKTYLAWYQQKPGQSPKLLIYWTSTRESGVPDRFTGSGSGTDFTLTISSVKAEDLAVYFCQQYYTYPPTFGAGTKLEIK
heavy 2: EVRLLESGGGLVQPGGSLRLSCAASGFTFSNYAMGWVRQAPGKGLEWVSAISGSGGSTYYADSVKGRFTTSRDDSKNALYLQMNSLRAEDTAVYYCARGGPGWYAADVWGQGTTVTVSS[here human IgG1 constant region with changes without letters]
light: B1 light
B3: CD98hc.05.188 (2+1 bispecific antibody) (bispecific antibody)
heavy 1: EVRLLESGGGLVQPGGSLRLSCAASGFTFSNYAMGWVRQAPGKGLEWVSAISGSGGSTYYADSVKGRFTTSRDDSKNALYLQMNSLRAEDTAVYYCARGGPGWYAADVWGQGTTVTVSSASTKGPSVFPLAPSSKSTSGGTAALGCLVKDYFPEPVTVSWNSGALTSGVHTFPAVLQSSGLYSLSSVVTVPSSSLGTQTYICNVNHKPSNTKVDKKV[here human IgG1 Fc with changes without letters]GGGGSGGGGSGGGGSQVQLQQPGAELVRPGASVKLSCKASGYTFTSYWMSWVKQRPGQGLEWIGFITPSDSEALYSQMFKDKATLTVDKSSSTAHLQLSSLTSEDSAVYYCARWSYGNFAAMDYWGQGTSVTVSSGGSEGKSSGSGSESKSTGGSDIVMTQSPSSLAMSVGQKVTMSCKSSQSLLNSNNQKNYLAWYQQKPGQSPKLLVYFSSTRESGVPDRFIGSGSGTDFTLTITSVQAEDLADYFCQQHYSTPLTFGAGTKLEIK
heavy 2: EVRLLESGGGLVQPGGSLRLSCAASGFTFSNYAMGWVRQAPGKGLEWVSAISGSGGSTYYADSVKGRFTTSRDDSKNALYLQMNSLRAEDTAVYYCARGGPGWYAADVWGQGTTVTVSS[here human IgG1 constant region with changes without letters]
light: B1 light
B4: CD98hc.05.193 (2+1 bispecific antibody) (bispecific antibody)
heavy 1: EVRLLESGGGLVQPGGSLRLSCAASGFTFSNYAMGWVRQAPGKGLEWVSAISGSGGSTYYADSVKGRFTTSRDDSKNALYLQMNSLRAEDTAVYYCARGGPGWYAADVWGQGTTVTVSSASTKGPSVFPLAPSSKSTSGGTAALGCLVKDYFPEPVTVSWNSGALTSGVHTFPAVLQSSGLYSLSSVVTVPSSSLGTQTYICNVNHKPSNTKVDKKV[here human IgG1 Fc with changes without letters]GGGGSGGGGSGGGGSEVQLVESGGGLVQPGGSLKVSCTTSGFTFSDFDMSWIRQTPEKRLEWVAYISSGGGSTYFPDTVKGRFTISRDNAKSTLYLQMSSLKSEDTAMYYCARHVGVRPWFDYWGQGTLVTVSSGGSEGKSSGSGSESKSTGGSDIVMSQSPSSLAVSVGEKVTMTCKSSQSLLYSSNQKNYLAWYQQKPGQSPKLLIYWASTRESGVPDRFTGSGSGTDFTLTISSVKAEDLALYYCQQYHYYPPTFGAGTKLEIK
heavy 2: EVRLLESGGGLVQPGGSLRLSCAASGFTFSNYAMGWVRQAPGKGLEWVSAISGSGGSTYYADSVKGRFTTSRDDSKNALYLQMNSLRAEDTAVYYCARGGPGWYAADVWGQGTTVTVSS[here human IgG1 constant region with changes without letters]
light: B1 light
B5: CD98hc.05.168 (2+1 bispecific antibody) (bispecific antibody)
heavy 1: EVRLLESGGGLVQPGGSLRLSCAASGFTFSNYAMGWVRQAPGKGLEWVSAISGSGGSTYYADSVKGRFTTSRDDSKNALYLQMNSLRAEDTAVYYCARGGPGWYAADVWGQGTTVTVSSASTKGPSVFPLAPSSKSTSGGTAALGCLVKDYFPEPVTVSWNSGALTSGVHTFPAVLQSSGLYSLSSVVTVPSSSLGTQTYICNVNHKPSNTKVDKKV[here human IgG1 Fc with changes without letters]GGGGSGGGGSGGGGSEVQLVESGGGLVKPGGSLKLSCAASGFAFSTYDMSWVRQTPEKRLEWVAYISSGGDTTYYPDTVKGRFTISRDNAKNTLYLQMSSLKSEDSAIYYCARQDYRPYFAYWGQGTLVTVSSGGSEGKSSGSGSESKSTGGSDIVMSQSPSSLAVSVGEKVTVSCKSSQNLLYSSNQKNYLAWYQQKPGQSPKLLIYWASTRESGVPDRFTGSGSGTDFTLTISSVKAEDLAVYYCQQYSYYPPTFGGGTKLEIK
heavy 2: EVRLLESGGGLVQPGGSLRLSCAASGFTFSNYAMGWVRQAPGKGLEWVSAISGSGGSTYYADSVKGRFTTSRDDSKNALYLQMNSLRAEDTAVYYCARGGPGWYAADVWGQGTTVTVSS[here human IgG1 constant region with changes without letters]
light: B1 light
B6: CD98hc.05.226 (2+1 bispecific antibody) (bispecific antibody)
heavy 1: EVRLLESGGGLVQPGGSLRLSCAASGFTFSNYAMGWVRQAPGKGLEWVSAISGSGGSTYYADSVKGRFTTSRDDSKNALYLQMNSLRAEDTAVYYCARGGPGWYAADVWGQGTTVTVSSASTKGPSVFPLAPSSKSTSGGTAALGCLVKDYFPEPVTVSWNSGALTSGVHTFPAVLQSSGLYSLSSVVTVPSSSLGTQTYICNVNHKPSNTKVDKKV[here human IgG1 Fc with changes without letters]GGGGSGGGGSGGGGSEVQLVESGGGLGKPGGSLKLSCAASGFAFSSYDMSWVRQTPEKRLDWVAYISSGGGGTYYPDTVKGRFTISRDNAKNTLYLQMSSLKSEDTAIYYCARHVGVRPWFGYWGQGTLVTVSSGGSEGKSSGSGSESKSTGGSDIVMSQSPSSLAVSVGEKITMTCKSSQSLLYSGSQKNYLAWYQQKPGQSPKLLIYWASTRESGVPDRFTGSGSGTDFTLTISSVKAEDLAVYYCQQYSYYPPTFGAGTKLEIK
heavy 2: EVRLLESGGGLVQPGGSLRLSCAASGFTFSNYAMGWVRQAPGKGLEWVSAISGSGGSTYYADSVKGRFTTSRDDSKNALYLQMNSLRAEDTAVYYCARGGPGWYAADVWGQGTTVTVSS[here human IgG1 constant region with changes without letters]
light: B1 light

The first assay has as its target T1, huCD98hc ECD Avi-His. The experiment in a line: ELISA, 1-30 ug/mL. In general terms: An ELISA detects its analyte on a solid surface through an enzyme-linked reagent.
B1: the “ELISA ratio to 2nd only” value amounted to 31.
Same read-out and setting: under B2 stands 23; under B3, 17.
Same read-out and setting: under B4 stands 28.
Still for that read-out and setting: under B5 stands 28.
On to B6, for which the “ELISA ratio to 2nd only” value was found to be 25.

Another assay concerns the target T2, Cyno CD98hc ECD Avi-His. Kind of assay: ELISA, 1-30 ug/mL.
On to B1, for which the “ELISA ratio to 2nd only” value is 4.
B2: the “ELISA ratio to 2nd only” value is 7.
The same measure, in the same setting: under B3 stands 1; under B4, 10.
The same measure, in the same setting: under B5 stands 9; under B6, 6.

Another assay has as its target T3, cyno TfR AVI-His (cyno, UniProt H9EXL1 89-760 (rhesus entry)).
T3 construct: control protein
Kind of assay: ELISA, 1-30 ug/mL.
Consider B1, for which the “ELISA ratio to 2nd only” value came to 1.
Same read-out and setting: under B2 stands 1; under B3, 1; under B4, 1.
Regarding B5, the “ELISA ratio to 2nd only” value was found to be 1.
Same read-out and setting: under B6 stands 1.
